{"source": "PubChem BioAssay AID485281", "about": "(National Center for Advancing Translational Sciences (NCATS), 2010)", "note": "In all, about 350,000 compounds went through this assay and about 260 (0.074%) were called active. The inconclusive results got no clear call from the source; some entries with a clear call stand among them for comparison. Calls follow the shape of the dose curve; as a rule, active = well fitted inhibition curve with a large enough effect; inconclusive = small, poorly fitted or top-dose-only effect; inactive = no such curve, though single readings can be large or run the other way. Potencies beside an inconclusive call are fits to weak or partial responses and may not hold up.", "data": [{"molecular_target": "Ferritin light chain (Equus caballus) (UniProt P02791)", "sequence (P02791 whole entry, looked up)": "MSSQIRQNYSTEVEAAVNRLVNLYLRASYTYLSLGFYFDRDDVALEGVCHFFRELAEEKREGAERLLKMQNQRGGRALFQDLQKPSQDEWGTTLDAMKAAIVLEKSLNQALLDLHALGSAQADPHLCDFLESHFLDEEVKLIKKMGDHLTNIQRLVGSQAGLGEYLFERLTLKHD", "experiment": "qHTS Assay for Identification of Novel General Anesthetics; also: nearly all actives have a fitted effect of over 20% in size; also: potency is read from the fitted curve at half-maximal effect; tags tell the direction and shape of the fitted curve", "settings": "apoferritin/1-aminoanthracene competitive binding, fluorescence; series mostly up to 77.5 µM", "method_in_brief": "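Horse-spleen apoferritin (10 uM) was mixed with 50% saturated 1-aminoanthracene in PBS, exposed to compounds for 10 min at room temperature, and read for fluorescence (ex 380 nm, em 535 nm). Competitive displacement was fitted with a four-parameter Hill equation.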", "values": [{"compound": "N#CC1=C(N)N(c2ccccc2)C(c2cccc([N+](=O)[O-])c2)C1(C#N)C#N", "note": "(stereo not given)", "Potency": "inconclusive: 10 µM [inhibitor, partial curve]"}, {"compound": "CCCc1nnc(NC(=O)c2cc3ccccc3o2)s1", "Potency": "inactive"}, {"compound": "Cc1ccccc1CS(=O)(=O)c1ncc(Cl)c(C(=O)Nc2ccc(F)cc2)n1", "Potency": "inactive"}, {"compound": "CCC(C(=O)Nc1cc(-c2nc3cccnc3s2)ccc1C)c1ccccc1", "note": "(stereo not given)", "Potency": "inconclusive: 3.98 µM [inhibitor, full curve]"}, {"compound": "CCCCCCCCSc1nnc(CSc2nc3nc(C)cc(C)n3n2)o1", "Potency": "inconclusive: 6.31 µM [inhibitor, full curve, poor fit]"}, {"compound": "Clc1ccc(N=C2SCC3CCCCN23)cc1", "note": "(stereo not given)", "Potency": "inconclusive: 31.6 µM [inhibitor, single point]"}, {"compound": "CC(C)CNC(=O)CC(=O)NN=C1CCCC1", "Potency": "inconclusive: 31.6 µM [inhibitor, partial curve]"}, {"compound": "O=C(NC1CCN(C(=O)Nc2ccc(F)cc2)CC1)c1ccccc1F", "Potency": "inactive"}, {"compound": "CCOc1cc(S(=O)(=O)NCc2ccc3c(c2)OCO3)c(C)cc1C", "Potency": "inactive"}, {"compound": "Cn1c(N)c(C(=O)COC(=O)C23CC4CC(CC(C4)C2)C3)c(=O)n(C)c1=O", "Potency": "inconclusive: 50.1 µM [inhibitor, partial curve]"}, {"compound": "CCOc1ccc(/C=N/N2C(C)CCCC2C)cc1OC", "note": "(stereo not given)", "Potency": "inconclusive: 31.6 µM [inhibitor, single point]"}, {"compound": "COC(=O)c1c(C)oc2ccc(N(C(=O)c3ccncc3)S(=O)(=O)c3ccc(C)cc3)cc12", "Potency": "inconclusive: 20 µM [inhibitor, partial curve]"}, {"compound": "C/C(=N/NC(=O)CNC(=O)C1COc2ccccc2O1)c1cccc(O)c1", "note": "(stereo not given)", "Potency": "inconclusive: 14.1 µM [inhibitor, partial curve]"}, {"compound": "CC(=O)Nc1ccc(NC(=O)c2oc3ccc4c(c3c2C)C(=O)CC(C)(C)O4)cc1", "Potency": "inconclusive: 35.5 µM [inhibitor, partial curve]"}, {"compound": "CCCCOC(=O)C1=C(C)Nc2nnnn2C1c1ccccc1Cl", "note": "(stereo not given)", "Potency": "inconclusive: 35.5 µM [inhibitor, single point]"}, {"compound": "Cc1ccc(C(C(=O)NC2CCCCC2)N(C(=O)Cc2c[nH]c3ccccc23)c2ccccc2)o1", "note": "(stereo not given)", "Potency": "inactive"}, {"compound": "Cc1ccc(C)n1-n1cnc2sc3c(c2c1=O)CCC3", "Potency": "inconclusive: 31.6 µM [inhibitor, partial curve]"}, {"compound": "Cc1ccc(-c2ccc(=O)n(CC(=O)Nc3cccc(C#N)c3)n2)cc1", "Potency": "inconclusive: 2 µM [inhibitor, full curve]"}, {"compound": "Cc1ccc(C2CCN(C(=O)c3cnn(-c4ccc(C)cc4)c3C3CCN(C(=O)OC(C)(C)C)CC3)C2)cc1", "note": "(stereo not given)", "Potency": "inconclusive: 10 µM [inhibitor, partial curve]"}, {"compound": "N#Cc1ccccc1NC(=O)C1SC(=Nc2ccccc2)C(C(=O)Nc2ccc(Cl)cc2)=C1N", "note": "(stereo not given)", "Potency": "inconclusive: 4.47 µM [inhibitor, partial curve]"}, {"compound": "Cc1onc(-c2ccccc2Cl)c1C(=O)N1CCc2ccccc2C1", "Potency": "inconclusive: 35.5 µM [inhibitor, single point]"}, {"compound": "Fc1cc(F)nc(NCc2ccccc2)n1", "Potency": "inconclusive: 15.8 µM [inhibitor, partial curve]"}, {"compound": "Cc1onc(-c2c(F)cccc2Cl)c1C(=O)N1CCc2ccccc21", "Potency": "inconclusive: 25.1 µM [inhibitor, partial curve]"}, {"compound": "O=C(/C=C/c1ccccc1)CC(O)(c1ccccc1)C(F)(F)F", "note": "(stereo not given)", "Potency": "inconclusive: 39.8 µM [inhibitor, partial curve]"}, {"compound": "CC(C)Oc1ccc(C(=O)NNC(=O)c2ccccc2C(=O)O)cc1", "Potency": "inconclusive: 31.6 µM [inhibitor, single point]"}, {"compound": "C=C(C)CSC1=C(C#N)C(c2ccccc2Cl)CC(=O)N1", "note": "(stereo not given)", "Potency": "inconclusive: 28.2 µM [inhibitor, partial curve]"}, {"compound": "COc1ccc(NC2CCCN(C(=O)c3cccs3)C2)cc1", "note": "(stereo not given)", "Potency": "inconclusive: 31.6 µM [inhibitor, single point]"}, {"compound": "CCOc1cc(C2Nc3cccc4cccc(c34)N2)ccc1O", "Potency": "inconclusive: 56.2 µM [inhibitor, single point]"}, {"compound": "COC(=O)c1ccc(C(=O)OC)c(NC(=O)COC(=O)C2CCC(C(C)(C)C)CC2)c1", "note": "(stereo not given)", "Potency": "inconclusive: 12.6 µM [inhibitor, partial curve]"}, {"compound": "CC(CCN1C(Nc2ccccc2)=NC[C@@H]1Cc1ccccc1)c1ccccc1", "note": "(stereo not given in full)", "Potency": "inconclusive: 50.1 µM [inhibitor, single point]"}, {"compound": "COc1ccc(/C=C/c2ccncc2)cc1", "Potency": "inactive"}, {"compound": "O=C(NC(=S)NNC(=O)c1ccccc1[N+](=O)[O-])c1ccc(Br)cc1", "Potency": "inactive"}, {"compound": "COc1ccc(-c2nc(SCC(=O)Nc3cc(C)on3)n[nH]2)cc1", "Potency": "inconclusive: 31.6 µM [inhibitor, single point]"}, {"compound": "CCc1c(C#N)c(SCCC(=O)Nc2ccc(C)cc2)nc2c1C(=O)CC(C)(C)C2", "Potency": "inconclusive: 3.98 µM [inhibitor, partial curve]"}, {"compound": "O=C(Cn1nc(CNc2ccc(Cl)cc2)[n+]2c1CCCCC2)c1ccc(Cl)cc1", "Potency": "inconclusive: 15.8 µM [inhibitor, partial curve]"}, {"compound": "COCCCNC(=O)c1c[nH]c2ccc(S(=O)(=O)N3CCC4(CC3)OCCO4)cc2c1=O", "Potency": "inactive"}, {"compound": "CCc1noc(-c2ccc(N3CCCCC3C)c([N+](=O)[O-])c2)n1", "note": "(stereo not given)", "Potency": "inconclusive: 39.8 µM [inhibitor, partial curve]"}, {"compound": "COC(=O)c1c(C(=O)OC)c2ccccn2c1C(=O)c1ccc([N+](=O)[O-])cc1", "Potency": "inactive"}, {"compound": "Cc1noc(C)c1CSc1nc2ccccc2c(=O)n1-c1ccccc1", "Potency": "inconclusive: 56.2 µM [inhibitor, single point]"}, {"compound": "CCS(=O)(=O)c1cc([N+](=O)[O-])c(Sc2ccccc2NC(C)=O)s1", "Potency": "inactive"}, {"compound": "O=C(CSc1nccn1Cc1ccc(Cl)cc1)Nc1ccc2c(c1)OCCO2", "Potency": "inconclusive: 39.8 µM [inhibitor, single point]"}, {"compound": "Cc1ccc(NC(=O)CSc2nc(O)cc(=O)n2-c2ccc(C)cc2)cc1", "Potency": "inactive"}, {"compound": "O=C(CSc1nc2cc(Cl)ccc2s1)Nc1cccc(S(=O)(=O)N2CCOCC2)c1", "Potency": "inactive"}, {"compound": "ONC(=Nc1ccccc1)C(=Nc1ccccc1)NO", "Potency": "inconclusive: 15.8 µM [inhibitor, partial curve]"}, {"compound": "CCCCN(N=Nc1nonc1OC)c1nonc1OC", "Potency": "inconclusive: 39.8 µM [inhibitor, single point]"}, {"compound": "COc1ccc(C(=O)c2oc3ccc(OC)cc3c2N)cc1", "Potency": "inactive"}, {"compound": "Cc1nc(NCCc2ccccc2)sc1C(=O)O", "Potency": "inconclusive: 28.2 µM [inhibitor, partial curve]"}, {"compound": "COc1ccccc1/C=C1\\SC(=S)N(Nc2nc(C)cc(C)n2)C1=O", "Potency": "inactive"}, {"compound": "Cc1ccc(-c2c(C)sc3nc[nH]c(=O)c23)cc1C", "Potency": "inconclusive: 22.4 µM [inhibitor, partial curve]"}, {"compound": "S=C(c1ccc(N2CCCC2)cc1)N1CCCCC1", "Potency": "inconclusive: 25.1 µM [inhibitor, partial curve]"}, {"compound": "COc1ccc(C(=O)N/N=C/c2ccc3cccc(OCc4ccccc4)c3n2)cc1", "Potency": "inactive"}, {"compound": "Cc1ccc(C(=O)N2CCCCCC2)cc1Br", "Potency": "inconclusive: 50.1 µM [inhibitor, single point]"}, {"compound": "Cc1cc(/C=C2\\SC(=S)NC2=O)c(C)[nH]1", "Potency": "inactive"}, {"compound": "Cc1sc2ncn(-c3ccccc3)c(=O)c2c1C", "Potency": "inconclusive: 15.8 µM [inhibitor, partial curve]"}, {"compound": "O=C(Nc1cccc(Cl)c1)c1cnc[nH]1", "Potency": "inconclusive: 35.5 µM [inhibitor, single point]"}, {"compound": "CCN(CC)S(=O)(=O)c1ccc(Cl)c(NC(=O)CCCCl)c1", "Potency": "inconclusive: 35.5 µM [inhibitor, partial curve]"}, {"compound": "S=c1[nH]nc(-c2ccccc2)c2ccccc12", "Potency": "inconclusive: 31.6 µM [inhibitor, partial curve]"}, {"compound": "Cc1cccc(NC(=O)CN(C)S(=O)(=O)c2cccs2)c1", "Potency": "inconclusive: 15.8 µM [inhibitor, partial curve]"}, {"compound": "CCCOC1CCCN(C(=O)CCc2nnc(CCCCc3ccccc3)o2)C1", "note": "(stereo not given)", "Potency": "inconclusive: 39.8 µM [inhibitor, single point]"}, {"compound": "O=C(CSc1ncccn1)N/N=C/c1cccc(OC2CSC2)c1", "Potency": "inconclusive: 35.5 µM [inhibitor, single point]"}, {"compound": "COc1ccc(C2(C(=O)Nc3nncs3)CCCC2)cc1", "Potency": "inactive"}, {"compound": "CC(C)c1ccccc1OCC(=O)Nc1ccc2[nH]ncc2c1", "Potency": "inconclusive: 35.5 µM [inhibitor, single point]"}, {"compound": "Cc1cccc(CSc2nc3c(c(=O)[nH]2)C(c2cccc(O)c2)CC(=O)N3)c1", "note": "(stereo not given)", "Potency": "inconclusive: 31.6 µM [inhibitor, single point]"}, {"compound": "S=c1[nH]nc(-c2cc(-c3ccccc3)n[nH]2)n1/N=C/c1c(Cl)cccc1Cl", "Potency": "inactive"}, {"compound": "CCCCN1C(=O)/C(=C/C=C2/CC(C)(C)CN2C)SC1=S", "Potency": "inconclusive: 14.1 µM [inhibitor, partial curve]"}, {"compound": "O=C(Nc1ccc(OC(F)F)c(Cl)c1)Nc1ccc2c(c1)OCO2", "Potency": "inactive"}, {"compound": "Cc1ccc(C2=NN3C(C(=O)c4ccccc4)Oc4ccccc4C3C2)cc1", "note": "(stereo not given)", "Potency": "inconclusive: 14.1 µM [inhibitor, partial curve]"}, {"compound": "O=c1c2ccccc2ncn1Cc1ccco1", "Potency": "inconclusive: 35.5 µM [inhibitor, single point]"}, {"compound": "O=C(CCN1CCc2ccccc2C1)Nc1ccc2c(c1)OCO2", "Potency": "inactive"}, {"compound": "CCN(CC)CCN(Cc1cc2ccc(C)cc2[nH]c1=O)C(=O)Nc1ccc(Cl)cc1", "Potency": "inconclusive: 11.2 µM [inhibitor, partial curve]"}]}]}
